Source: PubChem BioAssay AID504332 (National Center for Advancing Translational Sciences (NCATS), 2011)
The whole screen tested about 350,000 compounds, of which about 31,000 (8.9%) were called active. Inconclusive results, whose numbers are uncertain, are shown with a selection of clear calls. Calls follow the shape of the dose curve; as a rule, active = well fitted inhibition curve with a large enough effect; inconclusive = small, poorly fitted or top-dose-only effect; inactive = no such curve, though single readings can be large or run the other way. Where the call is inconclusive, the potency comes from a doubtful curve fit.

Each molecule was assayed against Histone-lysine N-methyltransferase EHMT2 (Homo sapiens) (UniProt Q96KQ7) (assay: qHTS Assay for Inhibitors of Histone Lysine Methyltransferase G9a). Settings: G9a H3K9 monomethylation, AlphaScreen, 2 h; activity, negative = inhibition: at 59 µM (top of the series) unless noted.
UniProt Q96KQ7, sequence (Q96KQ7 whole entry, looked up): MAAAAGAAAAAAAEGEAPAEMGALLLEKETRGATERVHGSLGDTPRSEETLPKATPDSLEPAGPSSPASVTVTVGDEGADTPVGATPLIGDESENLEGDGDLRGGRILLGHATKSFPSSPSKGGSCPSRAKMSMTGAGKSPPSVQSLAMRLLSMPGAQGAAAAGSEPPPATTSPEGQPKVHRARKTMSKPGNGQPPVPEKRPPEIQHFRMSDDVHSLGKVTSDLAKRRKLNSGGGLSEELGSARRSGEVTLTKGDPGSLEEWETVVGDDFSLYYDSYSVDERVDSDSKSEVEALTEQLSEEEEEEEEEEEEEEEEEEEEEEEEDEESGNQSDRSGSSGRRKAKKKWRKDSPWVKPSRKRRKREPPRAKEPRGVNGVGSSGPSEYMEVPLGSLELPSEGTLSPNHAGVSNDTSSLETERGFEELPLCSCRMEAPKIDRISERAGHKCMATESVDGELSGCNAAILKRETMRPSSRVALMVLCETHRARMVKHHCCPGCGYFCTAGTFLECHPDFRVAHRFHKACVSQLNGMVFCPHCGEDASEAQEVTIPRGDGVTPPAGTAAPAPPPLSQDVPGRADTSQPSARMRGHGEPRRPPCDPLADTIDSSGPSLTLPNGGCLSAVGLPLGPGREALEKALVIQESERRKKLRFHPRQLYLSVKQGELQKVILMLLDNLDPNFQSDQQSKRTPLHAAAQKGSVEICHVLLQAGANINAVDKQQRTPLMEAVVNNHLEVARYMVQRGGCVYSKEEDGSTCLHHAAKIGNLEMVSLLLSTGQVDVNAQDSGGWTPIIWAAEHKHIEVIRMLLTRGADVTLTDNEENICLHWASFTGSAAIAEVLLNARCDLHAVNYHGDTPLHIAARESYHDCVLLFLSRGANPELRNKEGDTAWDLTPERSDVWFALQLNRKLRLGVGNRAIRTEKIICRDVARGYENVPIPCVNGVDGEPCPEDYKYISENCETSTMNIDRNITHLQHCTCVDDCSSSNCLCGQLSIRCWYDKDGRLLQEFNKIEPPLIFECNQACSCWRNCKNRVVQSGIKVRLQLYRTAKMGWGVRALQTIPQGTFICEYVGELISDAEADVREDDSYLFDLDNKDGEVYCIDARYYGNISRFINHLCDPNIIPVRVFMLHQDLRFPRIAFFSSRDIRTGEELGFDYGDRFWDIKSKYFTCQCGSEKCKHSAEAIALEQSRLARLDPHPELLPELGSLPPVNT
Summary of the method: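 G9a (20 nM) was preincubated 15 min with compound, then reacted 2 h at room temperature with 500 nM biotin-H3K9 peptide and 20 µM SAM. Monomethyl-H3K9 detected by AlphaScreen using anti-H3K9me1 antibody.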
% is scaled to controls: 0 for no effect and ±100 for the full control effect; potency is read from the fitted curve at half-maximal effect; tags tell the direction and shape of the fitted curve.
Also: nearly all actives have a fitted effect of over 75% in size.

Compound | Potency | activity, negative = inhibition
COc1cc([N+](=O)[O-])ccc1NC(=S)Nn1cnnc1 | active: 10 µM | –
CCCN(C(=O)c1ccc(N2CCCC2=O)cc1)C1CCS(=O)(=O)C1 (stereo not drawn) | inconclusive: 35.5 µM [inhibitor, single point] | –
COc1cccc(CNC(=O)c2cc(S(=O)(=O)N3CCCCC3)c[nH]2)c1 | inconclusive: 89.1 µM [inhibitor, partial curve, poor fit] | –
Cc1n[nH]c(=S)n(NC(=O)CC(=O)Nn2c(=S)[nH]nc(C)c2=O)c1=O | – | inactive: -0.197% [at 102 µM]
CCOc1ccc(-c2n[nH]c(=S)n2/N=C/c2cc3c(cc2[N+](=O)[O-])OCO3)cc1 | inconclusive: 1.26 µM [inhibitor, full curve, poor fit] | –
CCOc1ccc(NC(=O)Nc2ccc(Br)cn2)cc1 | – | inactive: -11.4% [at 102 µM]
O=C(c1cccnc1)N1c2ccccc2Sc2ccccc21 | inconclusive: 89.1 µM [inhibitor, partial curve, poor fit] | –
CCCOc1cccc(C(=O)Nc2cc(NC(=O)c3ccco3)ccc2OC)c1 | inconclusive: 39.8 µM [inhibitor, single point] | –
O=c1[nH]c2ccccc2n1CCC1CCCCC1 | inconclusive: 1.78 µM [inhibitor, partial curve, poor fit] | –
OC[C@H]1O[C@@H](n2cnc3c(Nc4ccccc4)ncnc32)[C@H](O)[C@H]1O | – | inactive: 31.5% [at 12.7 µM]
Cc1ccc(NC(=O)C2C(C(=O)O)C3C=CC2C32CC2)cc1 (stereo not drawn) | inconclusive: 79.4 µM [inhibitor, partial curve, poor fit] | –
O=C(NCC1CCCO1)C(=O)N/N=C/c1ccccc1C(=O)O (stereo not drawn) | – | inactive: 13.9% [at 102 µM]
CCOC(=O)c1sc(NC(=O)c2cc(-c3ccccc3C)nc3ccccc23)c(C#N)c1C | active: 1.58 µM | –
O=C(Cc1ccc(-n2cccc2)cc1)N1CCc2ccccc21 | inconclusive: 89.1 µM [inhibitor, single point] | –
C=CCc1cccc(/C=N/NC(=O)CNc2cccc3ccccc23)c1O | inconclusive: 10 µM [inhibitor, partial curve, poor fit] | –
Cc1cc(C2N=C(N)Nc3nc4ccccc4n32)c(C)n1-c1ccccc1Cl (stereo not drawn) | inconclusive: 11.2 µM [inhibitor, partial curve] | –
COc1ccc(-n2c(Cc3cc(=O)[nH]c(=O)[nH]3)nnc2SCC(=O)N2CCCC2)cc1 | inconclusive: 100 µM [inhibitor, single point] | –
O=C(CSc1nc(-c2ccccc2)c(-c2ccccc2)[nH]1)NCCN1C(=O)CSC1=O | inconclusive: 14.1 µM [inhibitor, partial curve] | –
Cc1nn2c(N)c(C#N)cnc2c1-c1ccccc1 | inconclusive: 39.8 µM [inhibitor, single point] | –
O=c1c(O)cccc2cc(O)c(O)c(O)c12 | active: 0.562 µM | –
Cc1ccc(C(C)C)c(OCC(O)CN2CCN(CCO)CC2)c1 (stereo not drawn) | inconclusive: 39.8 µM [inhibitor, single point] | –
O=C(Nc1ccccc1)C1=C(c2ccccc2)S(=O)(=O)CCS1(=O)=O | active: 28.2 µM | –
O=C(O)CCCNc1cc(N2CCN(C(=O)c3ccco3)CC2)c2noc3c2c1C(=O)c1ccccc1-3 | active: 10 µM | –

Compound | Potency | activity, negative = inhibition
CCOC(=O)c1cc(C#N)c(N2CCCNCC2)nc1C(F)(F)F | inconclusive: 31.6 µM [inhibitor, single point] | –
O=C(Nc1nncs1)Oc1ccccc1 | inconclusive: 3.16 µM [inhibitor, partial curve, poor fit] | –
C/C(CC(=O)Nc1cc(C)ccn1)=N\NC(=O)C(=O)Nc1cccc(C)c1 | inconclusive: 1 µM [inhibitor, partial curve, poor fit] | –
CC1CCN(CC(=O)Nc2nn(-c3ccccc3)nc2C(N)=O)CC1 | inconclusive: 17.8 µM [inhibitor, full curve] | –
O=C(CN1CCOCC1)N/N=C/c1ccc(-c2ccc(Br)cc2)o1 | inconclusive: 50.1 µM [inhibitor, partial curve] | –
COCCCN(C(=S)Nc1cc(Cl)cc(Cl)c1)C(C)c1ccncc1 (stereo not drawn) | inconclusive: 31.6 µM [inhibitor, single point] | –
CC(=O)c1cccc(NC(=O)Nc2csc3c2CCCC3)c1 | inconclusive: 44.7 µM [inhibitor, partial curve] | –
COC(=O)C(C)Sc1nc2c(c(=O)n1-c1ccccc1)SCC2 (stereo not drawn) | inconclusive: 70.8 µM [inhibitor, single point] | –
COc1cc(/C=C2\SC(=O)NC2=O)ccc1Oc1ccc([N+](=O)[O-])cc1[N+](=O)[O-] | active: 10 µM | –
Cc1cc(NC(=O)CCNS(=O)(=O)c2cccc3nsnc23)ccc1Br | inconclusive: 39.8 µM [inhibitor, partial curve, poor fit] | –
CCCCNC(C(=O)Nc1ccc(Cl)c([N+](=O)[O-])c1)c1ccccc1 (stereo not drawn) | inconclusive: 22.4 µM [inhibitor, single point] | –
C=CCn1c(CC#N)nnc1N1CCOCC1 | – | inconclusive: -95.9% [inhibitor]
O=C(Nc1ccc(-c2nc3cc(Cl)ccc3o2)cc1)c1cc2ccccc2o1 | – | inactive: 2.66%
CCC12CN(C(=O)c3ccco3)CC(CC)(CN(C(=O)c3ccco3)C1)C2=O | inconclusive: 100 µM [inhibitor, single point] | –
CCn1nnnc1SCC(=O)c1ccc(C)cc1 | inconclusive: 10 µM [inhibitor, partial curve, poor fit] | –
COc1ccc(CNC(=O)c2ccc3nc(-c4ccc(F)cc4)c(-c4ccc(F)cc4)nc3c2)cc1 | – | inactive: -2.94%
CC1(C)c2ssc(=S)c2-c2ccccc2N1C(=O)c1ccco1 | active: 8.91 µM | –
CN(CC(=O)N1CCN(Cc2ccccc2)CC1)S(=O)(=O)c1ccc(Br)cc1 | – | inactive: -1.3% [at 102 µM]
COc1cc(C(=O)Nc2ccc(NC(=O)c3ccccc3)nc2)cc(OC)c1OC | – | inactive: 16.9% [at 102 µM]
COc1cccc(CN2C(=O)CCC2(C)C(=O)NC2CCCCCC2)c1 (stereo not drawn) | inconclusive: 89.1 µM [inhibitor, single point] | –
COc1ccc(CCNC(=O)NC(C(F)(F)F)C(F)(F)F)cc1OC | inconclusive: 25.1 µM [inhibitor, partial curve, poor fit] | –
Cc1ccc(C)n1CCN1CCN(C(=O)CC#N)CC1 | inconclusive: 89.1 µM [inhibitor, single point] | –
COc1ccc(Nc2sc(C(=O)c3ccc(Cl)cc3)c(N)c2C(=O)Nc2ccccc2OC)cc1 | inconclusive: 3.55 µM [inhibitor, single point] | –

Compound | Potency | activity, negative = inhibition
O=C1c2cccnc2C(=O)N1c1cccc([N+](=O)[O-])c1 | – | inactive: 5.26% [at 102 µM]
CCCCCc1cc(=O)oc2c(C(CCN3CCCC(C)C3)c3ccc4c(c3)OCO4)c(OC)cc(OC)c12 (stereo not drawn) | – | inconclusive: -80.4% [inhibitor]
CN(C)C(=O)C1C2NC(=S)N(c3cccc(Cl)c3)C1(C)Oc1ccc(Cl)cc12 (stereo not drawn) | inconclusive: 50.1 µM [inhibitor, partial curve, poor fit] | –
COc1cccc(OCCn2ccnc2)c1 | inconclusive: 25.1 µM [inhibitor, single point] | –
Cc1cc(N2CCOCC2)nc2ccc(NC(=S)NC(C)C)cc12 | active: 70.8 µM | –
CCc1ccc(S(=O)(=O)c2nnn3c2nc(Nc2ccc(NC(C)=O)cc2)c2sccc23)cc1 | – | inactive: -24.3%
Cc1cccc(C)c1NC1=NC2(CCCCC2)N=C(N)N1 | inconclusive: 1 µM [inhibitor, partial curve, poor fit] | –
CCOc1ccc(N(Cc2ccccc2)C(=O)c2nc(S(C)(=O)=O)ncc2Cl)cc1 | inconclusive: 31.6 µM [inhibitor, single point] | –
CCc1nnc(NC(=O)Nc2ccc(OC)cc2)s1 | inconclusive: 79.4 µM [inhibitor, partial curve, poor fit] | –
Cc1cccc(N2CCN(C(=O)CS(=O)(=O)Cc3nc(-c4ccccc4C)oc3C)CC2C)c1 (stereo not drawn) | inconclusive: 39.8 µM [inhibitor, single point] | –
Cc1nc(S/C(C(=O)O)=C2/C(=O)Nc3ccccc32)n[nH]1 | active: 35.5 µM | –
O=C(O)C1[C@H]2C(=O)N(C3CCCC3)C[C@]23C=C[C@H]1O3 (stereo partly drawn) | – | inactive: -11.5%
CC1(C)Cc2c(c(N3CCOCC3)nc3sc4c(NCc5ccco5)nnnc4c23)CS1 | active: 17.8 µM | –
Cc1[nH]c2ccccc2c1C(=O)/C=C/c1ccccc1 | inconclusive: 89.1 µM [inhibitor, single point] | –
O=C(CSc1n[nH]c(-c2ccccc2)n1)Nc1ccc(Br)cn1 | inconclusive: 39.8 µM [inhibitor, single point] | –
O=C(NCCC1CCCCN1S(=O)(=O)c1cccs1)C(=O)NCc1ccccc1 (stereo not drawn) | – | inactive: -15.3% [at 102 µM]
O=C(CCCCCn1c(=O)[nH]c2ccccc2c1=O)N1CCN(Cc2ccc3c(c2)OCO3)CC1 | inconclusive: 79.4 µM [inhibitor, single point] | –
C/C(CC(=O)N1CCN(C=O)CC1)=N\NC(=O)c1cc2ccccc2cc1O | inconclusive: 14.1 µM [inhibitor, single point] | –
COc1cccc(N2CCN(Cc3ncc(-c4ccccc4)o3)CC2)c1 | inconclusive: 31.6 µM [inhibitor, single point] | –
COC(=O)c1nn(-c2ccccc2)c(Sc2ccc(OC)cc2)c1/C=N/O | inconclusive: 3.16 µM [inhibitor, partial curve, poor fit] | –
CC(C)(C)C(=O)CN1CCN(C2c3ccccc3-c3ccccc32)CC1 | active: 50.1 µM | –
COc1ccccc1NC(=O)NNC(=O)CCN1CCOCC1 | inconclusive: 14.1 µM [inhibitor, partial curve, poor fit] | –
